The record followed here is US20230272055A1, “ANTI-MUTANT CALRETICULIN (CALR) ANTIBODIES AND USES THEREOF” (Incyte Corporation, priority 2021, published 2023).

For this experiment, the system named is phosphorylation of STAT5 in Ba/F3 cells expressing MPL and Type 1 mutCALR. The experiment can be described thus: Inhibition of pSTAT5 (MSD Phospho-STAT5a,b lysate kit). The experiment is classed as cell-based. Conditions: 2 hours incubation. The procedure: To test the ability of anti-mutCALR antibodies to inhibit phosphorylation of STAT5, Ba/F3 cells (DSMZ) expressing MPL and Type 1 mutCALR variants were generated by nucleofection (Amaxa Cell Line Nucleofection Kit V, Lonza, Basel, Switzerland) and cultured in RPMI 1640+10% FBS+selection antibiotics. Prior (24 hours) to pSTAT5 assessment, cells were cultured in selection-free media and then plated at 200,000 cells per well (96 well plate) in RPMI 1640, 10% FBS. Antibodies were added to the cells and incubated for 2 hours followed by cell lysing and quantification of pSTAT-5 levels by MSD (Phospho-STAT5a,b Whole Cell Lysate Kit, MSD, Kenilworth, N.J.). Anti-mutCALR antibodies inhibit phosphorylation of STAT5 in a dose-dependent manner (FIG. 1).

B1: 14 (antibody)
heavy: EVQLVQSGAEVKKPGASVKVSCKVSGYTLTELSMQWVRQAPGKGLEWMGGFDPDDGETMYAEKFQGRLAVTEDTSTDTVYMELRSLTSEDTALYFCATSPGYDFFDYWGQGTLVTVSSASTKGPSVFPLAPSSKSTSGGTAALGCLVKDYFPEPVTVSWNSGALTSGVHTFPAVLQSSGLYSLSSVVTVPSSSLGTQTYICNVNHKPSNTKVDKRV[omitted - human IgG1 Fc]
light: SYVLTQPPSVSVAPGKTARITCGGYNIGSKFVHWYRQRPGQAPVLVVYDDRDRPSGIPERFSGSNSGNTATLTISRVEAGDEADYYCQVWDSSNDLLIFGGGTKLTVLGQPKAAPSVTLFPPSSEELQANKATLVCLISDFYPGAVTVAWKADSSPVKAGVETTTPSKQSNNKYAASSYLSLTPEQWKSHRSYSCQVTHEGSTVEKTVAPTECS
As for B1, the “IC50 (μg/mL), inhibition of pSTAT5” value is 0.06 μg/mL.
